Where two headings read alike, the source gives them in different places. Results are given in words; binding and its absence hold for the method and conditions named. For some of these results: Binding seen in cells or lysates may run through a third protein. Some entries that bind do so weakly or less than the wild type.
Key:
[1] = target: endogenous HPV16 E6 (human papillomavirus 16) (UniProt P03126); experiment: co-IP; endogenous proteins in whole cell lysates of HEK293T cells; IP with an antibody as indicated in the figure, rabbit IgG as IP-negative control; immunoblot
[2] = target: Flag-HPV16 E6 (pcDNA3.1/Flag-HPV16 E6) (human papillomavirus 16) (UniProt P03126); experiment: co-IP; co-transfected cells; total cell extracts incubated with anti-Flag antibody, precipitated with protein A-agarose; immunoblot with anti-HPV16 E6, anti-VEGFR-1, anti-VEGFR-2 or anti-IRF-1
[3] = target: HPV16 E6 oncoprotein, full-length, LexA bait (pGilda/LexA) (human papillomavirus 16) (UniProt P03126); experiment: two-hybrid; full-length HPV16 E6 in pGilda/LexA as bait; growth on medium lacking leucine, blue colonies, beta-galactosidase activity (unit) with ONPG
[4] = target: Flag-HPV16 E6 (pcDNA3.1/Flag-HPV16 E6) (human papillomavirus 16) (UniProt P03126); experiment: co-IP; co-transfected cells; total cell extracts incubated with anti-Flag antibody, precipitated with protein A-agarose; immunoblot with anti-HPV16 E6, anti-VEGFR-1, anti-VEGFR-2 or anti-IRF-1; remark: listed apart in the source
[5] = target: endogenous HPV16 E6 (human papillomavirus 16) (UniProt P03126); experiment: co-IP; endogenous proteins in whole cell lysates of HEK293T cells; IP with an antibody as indicated in the figure, rabbit IgG as IP-negative control; immunoblot; remark: listed apart in the source

Chains of the proteins cited; added tags and fusions are not shown. Lines headed by an entry give the natural chain unless they say otherwise; changes in a name come on top. Residues count along the entry.
UniProt P03126: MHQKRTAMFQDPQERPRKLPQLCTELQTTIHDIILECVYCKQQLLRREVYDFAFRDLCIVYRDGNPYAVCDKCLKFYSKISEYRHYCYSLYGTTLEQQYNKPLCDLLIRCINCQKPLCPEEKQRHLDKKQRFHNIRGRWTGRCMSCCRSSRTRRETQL
UniProt P17948: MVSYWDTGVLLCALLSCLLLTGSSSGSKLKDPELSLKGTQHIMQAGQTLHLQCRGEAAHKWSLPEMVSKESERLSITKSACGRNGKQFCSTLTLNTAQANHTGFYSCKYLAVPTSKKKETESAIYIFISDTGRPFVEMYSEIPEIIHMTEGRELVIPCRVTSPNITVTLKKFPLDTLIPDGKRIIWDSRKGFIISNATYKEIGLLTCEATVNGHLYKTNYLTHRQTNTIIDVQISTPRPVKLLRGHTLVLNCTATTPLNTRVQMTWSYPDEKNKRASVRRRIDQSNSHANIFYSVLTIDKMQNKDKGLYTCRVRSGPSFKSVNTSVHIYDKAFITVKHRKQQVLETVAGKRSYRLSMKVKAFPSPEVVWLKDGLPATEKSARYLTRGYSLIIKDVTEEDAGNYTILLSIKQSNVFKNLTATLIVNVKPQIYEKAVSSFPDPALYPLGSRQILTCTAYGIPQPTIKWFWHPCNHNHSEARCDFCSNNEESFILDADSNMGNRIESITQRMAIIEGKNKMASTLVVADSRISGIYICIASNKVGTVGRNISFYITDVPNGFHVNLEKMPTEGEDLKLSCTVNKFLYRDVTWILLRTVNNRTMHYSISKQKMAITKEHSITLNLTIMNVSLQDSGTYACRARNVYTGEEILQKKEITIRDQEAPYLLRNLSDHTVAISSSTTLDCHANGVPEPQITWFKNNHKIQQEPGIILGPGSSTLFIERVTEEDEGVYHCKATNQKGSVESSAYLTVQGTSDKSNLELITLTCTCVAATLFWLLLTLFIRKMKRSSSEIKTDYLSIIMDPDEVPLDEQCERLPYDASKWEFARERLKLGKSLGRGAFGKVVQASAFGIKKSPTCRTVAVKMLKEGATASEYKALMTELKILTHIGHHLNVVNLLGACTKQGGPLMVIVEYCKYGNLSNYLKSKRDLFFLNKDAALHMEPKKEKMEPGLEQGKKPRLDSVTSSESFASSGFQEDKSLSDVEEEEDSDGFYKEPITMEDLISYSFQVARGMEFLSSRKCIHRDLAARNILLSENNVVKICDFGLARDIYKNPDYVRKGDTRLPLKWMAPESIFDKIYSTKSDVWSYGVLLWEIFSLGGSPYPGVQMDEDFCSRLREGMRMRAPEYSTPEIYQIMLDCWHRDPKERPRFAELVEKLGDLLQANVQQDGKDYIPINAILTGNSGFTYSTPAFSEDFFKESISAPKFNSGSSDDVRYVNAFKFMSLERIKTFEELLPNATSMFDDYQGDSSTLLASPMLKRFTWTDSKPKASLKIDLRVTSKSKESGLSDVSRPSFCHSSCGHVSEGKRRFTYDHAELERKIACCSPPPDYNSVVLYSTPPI
UniProt P35968, residues 20-1356: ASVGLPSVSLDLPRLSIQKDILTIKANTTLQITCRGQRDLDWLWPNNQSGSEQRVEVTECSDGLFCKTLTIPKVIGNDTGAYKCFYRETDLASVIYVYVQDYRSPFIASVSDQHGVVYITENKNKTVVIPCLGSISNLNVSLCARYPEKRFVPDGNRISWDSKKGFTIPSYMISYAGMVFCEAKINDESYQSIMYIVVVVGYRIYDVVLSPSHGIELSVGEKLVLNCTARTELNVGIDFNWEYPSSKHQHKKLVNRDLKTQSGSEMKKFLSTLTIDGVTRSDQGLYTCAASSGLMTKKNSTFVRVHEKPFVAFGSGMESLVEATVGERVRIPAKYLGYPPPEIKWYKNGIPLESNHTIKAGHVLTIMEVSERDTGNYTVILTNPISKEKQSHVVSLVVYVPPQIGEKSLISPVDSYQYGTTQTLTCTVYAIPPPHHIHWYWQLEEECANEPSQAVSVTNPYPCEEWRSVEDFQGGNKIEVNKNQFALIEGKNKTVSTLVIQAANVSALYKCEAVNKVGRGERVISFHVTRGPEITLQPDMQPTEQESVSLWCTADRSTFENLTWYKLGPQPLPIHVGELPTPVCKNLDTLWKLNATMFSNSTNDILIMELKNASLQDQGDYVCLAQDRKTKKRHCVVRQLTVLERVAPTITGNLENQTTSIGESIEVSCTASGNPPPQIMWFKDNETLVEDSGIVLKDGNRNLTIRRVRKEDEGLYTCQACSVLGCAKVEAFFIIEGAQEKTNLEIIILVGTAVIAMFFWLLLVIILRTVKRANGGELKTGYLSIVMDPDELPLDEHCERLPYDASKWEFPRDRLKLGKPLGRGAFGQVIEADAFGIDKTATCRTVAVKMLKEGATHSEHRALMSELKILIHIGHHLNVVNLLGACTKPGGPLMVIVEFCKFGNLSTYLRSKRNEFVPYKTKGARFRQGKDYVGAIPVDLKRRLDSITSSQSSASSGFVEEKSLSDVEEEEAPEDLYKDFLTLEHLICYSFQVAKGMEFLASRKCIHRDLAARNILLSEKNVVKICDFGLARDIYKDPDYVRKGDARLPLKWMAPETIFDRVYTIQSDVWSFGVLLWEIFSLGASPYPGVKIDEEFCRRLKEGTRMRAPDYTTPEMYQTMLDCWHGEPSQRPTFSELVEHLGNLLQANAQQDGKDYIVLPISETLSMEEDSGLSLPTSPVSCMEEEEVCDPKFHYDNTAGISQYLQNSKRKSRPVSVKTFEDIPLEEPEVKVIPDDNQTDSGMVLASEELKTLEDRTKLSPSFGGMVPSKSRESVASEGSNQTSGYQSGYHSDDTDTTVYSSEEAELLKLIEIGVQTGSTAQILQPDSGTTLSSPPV

Molecule: endogenous VEGFR-1 (from UniProt P17948 27-1338) (receptor)
- binding [1]: no binding

Molecule: endogenous VEGFR-2 (from UniProt P35968 20-1356) (receptor)
- binding [1]: binds

Molecule: VEGFR-1 (pcDNA3.1/VEGFR-1) (from UniProt P17948 27-1338) (receptor)
- binding [2]: no binding

Molecule: VEGFR-1, yeast two-hybrid partner (from UniProt P17948 1-1338) (receptor)
- binding [3]: no binding

Molecule: VEGFR-2 (pcDNA3.1/VEGFR-2) (from UniProt P35968 20-1356) (receptor)
- binding [2]: binds

B1: IRF-1 (pcDNA3.1/IRF-1) (protein, UniProt P10914 1-325)
chain: MPITRMRMRPWLEMQINSNQIPGLIWINKEEMIFQIPWKHAAKHGWDINKDACLFRSWAIHTGRYKAGEKEPDPKTWKANFRCAMNSLPDIEEVKDQSRNKGSSAVRVYRMLPPLTKNQRKERKSKSSRDAKSKAKRKSCGDSSPDTFSDGLSSSTLPDDHSSYTVPGYMQDLEVEQALTPALSPCAVSSTLPDWHIPVEVVPDSTSDLYNFQVSPMPSTSEATTDEDEEGKLPEDIMKLLEQSEWQPTNVDGKGYLLNEPGVQPTSVYGDFSCKEEPEIDSPGGDIGLSLQRVFTDLKNMDATWLDSLLTPVRLPSIQAIPCAP
- binding [4]: binds

B2: endogenous IRF-1 (protein, UniProt P10914 1-325)
chain: B1 chain
- binding [5]: binds
